# Source: PubChem BioAssay (NCATS)
# Where “and” joins values, the source holds several entries; their conditions need not be identical. Identical values can stand only once. The inconclusive results got no clear call from the source; some entries with a clear call stand among them for comparison. Potencies of inconclusive entries are doubtful fits and often do not repeat. Calls of active or inactive are those of the source. Calls follow the shape of the dose curve; as a rule, active = well fitted inhibition curve with a large enough effect; inconclusive = small, poorly fitted or top-dose-only effect; inactive = flat fitted curve, though single readings scatter.
# Assay: Primary qHTS for inhibitors of nuclear receptor binding SET domain protein 2 (NSD2) in an isogenic RCH-ACV NSD2 p.E1099K mutant (9B) (AID 1645876); also: nearly all actives have a fitted effect of over 70% in size
# Details: RCH-ACV (leukaemia line) NSD2 E1099K (9B) viability, CellTiter-Glo, 72 h; series mostly up to 44.9 µM
# Potency is read from the fitted curve at half-maximal effect; tags tell the direction and shape of the fitted curve.
row,Structure (SMILES),Potency
1,O=c1oc2cc(O)ccc2s1,active: 20.9 µM
2,Cc1csc(NC(=O)c2sc3nc4c(c(C(F)(F)F)c3c2N)CCC4)n1,"inconclusive: 12.9 µM [inhibitor, partial curve, poor fit]"
3,COc1cccc(-c2ccc(NC(=O)C3=C(C(=O)O)CCC3)c(F)c2)c1,active: 5.78 µM and active: 2.95 µM
4,COC(=O)C1=C(C)NC(C)=C(C(=O)OCC(C)C)C1c1ccccc1[N+](=O)[O-] (stereo not drawn),"inconclusive: 21.1 µM [inhibitor, single point]"
5,CNCC[C@H](Oc1cccc2ccccc12)c1cccs1,active: 23.7 µM
6,O=c1[nH]cc(F)c(=O)[nH]1,"inconclusive: 21.1 µM [inhibitor, single point]"
7,O=c1cc(-c2ccccc2)oc2cc(O)c(O)c(O)c12,"inconclusive: 29.5 µM [inhibitor, single point]"
8,CCN(CC)C(=S)SSC(=S)N(CC)CC,active: 351 nM and active: 2.66 µM and active: 2.63 µM
